Measurements from the supplement of paper PMC11417369.
The other results are listed elsewhere or left out.

Test system: PF3D7_0420300 AP2 domain 1 (GST-tagged)
Test: gcPBM binding intensity (ln(normalized median fluorescence intensity)); higher = stronger DNA binding
Method in brief: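 Binding intensity is defined as the maximum Masliner-normalised natural-log median intensity across replicate spots for either probe orientation. It was measured on an Agilent 4 × 180k array of primer-extended double-stranded 36-bp intergenic genomic probes and negative controls, to which GST-tagged P. falciparum DNA-binding domains made in E. coli were applied for 1 h in 1× PBS with 1% milk, 0.2 mg/ml BSA, 0.5% salmon testes DNA and 0.03% Triton X-100. Detection was by Alexa488 anti-GST antibody and scanning at 488 nm.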

Going from “ATATATTACGACTTCTGTACATAATATATAAAAGAA [XGTACX_site2353]” to “TTTTTTTTTTTTTTTTTTTTTTTGTCTTATTTTTTT [GTGCAC_negctrl_site338]”, the “gcPBM binding intensity (ln)” value falls from 9.24 to 8.62.

Going from “TGAATTAAGATTTATTGTACATAATTTATACCATAT [XGTACX_site7034]” to “TAAATTTATAGACACACACACATATAAATAAATATA [CACACA_site6530]”, the “gcPBM binding intensity (ln)” value rises from 9.15 to 10.

First: AATGTGCTCGCTATTACACACTCATTGGGATAAACT [CACACA_site7043]
Second: TATATATATATATATTGTACATTTACCAAATTGTGT [XGTACX_site5791]
The “gcPBM binding intensity (ln)” value of the first is higher: 9.39 for the first, 9.27 for the second.

Compared with “ATATAATATATATATTGTACATATATTTATAAGCAT [XGTACX_site3726]”, “TTTTTTTTTTTTTGCACACTTAAATTTGGAGTGTAG [CACACA_site2345]” is lower in “gcPBM binding intensity (ln)” value: 9.2 for the first, 9.06 for the second.

First: TATATAAATAAATATACACACATATATAAATATACA [CACACA_site2982]
Second: TTTAATAATAATACTAGTACACATTCTTTATTATTT [XGTACX_site2671]
The “gcPBM binding intensity (ln)” value of the first is higher: 9.62 for the first, 9.37 for the second.

Compared with “TTTTTTTTTTTCGGGGGTACTAATATATTATTAATA [XGTACX_site7809]”, “GTTTTTAAGAAAAACACACACTCCTGTTATTTTATA [CACACA_site3696]” is lower in “gcPBM binding intensity (ln)” value: 9.79 for the first, 9.44 for the second.

Going from “AACAAAATTGAAGGAACACACATACAGATATATATA [CACACA_site4264]” to “TAATAATTAATTAATATAATATTTTTTCATAATTAT [XGTACX_negctrl_site602]”, the “gcPBM binding intensity (ln)” value falls from 9.81 to 8.93.

First: ATAGAAAAAATATACACACACTTATTAAATAAAAAT [CACACA_site7540]
Second: TAAAAAGTATATAAGAGTACACATATTTATAAATAT [XGTACX_site3084]
The “gcPBM binding intensity (ln)” value of the first is higher: 9.91 for the first, 9.37 for the second.

Compared with “AGACTTTGTACAAACACACACATGAGCACAATATTA [CACACA_site6755]”, “TATATATCAATATGCACACACAAGAAGTAATTATAA [CACACA_site7487]” is lower in “gcPBM binding intensity (ln)” value: 9.74 for the first, 9.72 for the second.

Compared with “AACAAATTTTTTTTTCCTTTTTTTTTTTTACTTCAT [CACACA_negctrl_site1214]”, “ATAAACAAAGTTAAATGTACAAAGGGGTAAAAAAAA [XGTACX_site83]” is higher in “gcPBM binding intensity (ln)” value: 9.28 for the first, 9.44 for the second.

Compared with “ACACAATTGAAATAGTGTACAAAATGTTGTTACATA [XGTACX_site8671]”, “TTTTTTTTTCGGAAAAGTACAAAACTTTTTTATAAT [XGTACX_site4670]” is lower in “gcPBM binding intensity (ln)” value: 9.21 for the first, 8.72 for the second.

First: TTATTAACCAAACGCACATGCAAAATATATTATATA [TGCATGCA_site915]
Second: AAATAAATAATATGTAAACACACAAAAAATAAAAAT [CACACA_site8307]
The “gcPBM binding intensity (ln)” value of the first is lower: 9.19 for the first, 9.72 for the second.

Compared with “TATAATGTTAAATAATGTACATATTTTTTTTTTTTT [XGTACX_site4721]”, “AAAGCTAATATTATATGTACTTATATATTTATATAT [XGTACX_site4474]” is higher in “gcPBM binding intensity (ln)” value: 9.09 for the first, 9.16 for the second.

First: ATATAAATCTACACCGCACACAAAAACAACAAATAT [CACACA_site2506]
Second: CATGTGCATATTAAATGTACATATATACATATATAC [XGTACX_site857]
The “gcPBM binding intensity (ln)” value of the first is higher: 9.86 for the first, 9.19 for the second.

Compared with “ATATAGGTATTTAATACACACAAAACTTTCATTCCA [CACACA_site7627]”, “ATATAAATATATTGCACACACAATTATTATTATTAT [CACACA_site7147]” is higher in “gcPBM binding intensity (ln)” value: 9.55 for the first, 9.59 for the second.

First: AAGGATGATACAACTTGTACATATTTGCTTAATATA [XGTACX_site764]
Second: AATATATTTTTTCACTGTACTTTTATTATATATACA [XGTACX_site8312]
The “gcPBM binding intensity (ln)” value of the first is lower: 9.17 for the first, 9.54 for the second.

Going from “AAAAAAAATGGATGATCACACACTTCATAAAAATTG [CACACA_site2213]” to “ATAATTTTTTGATTTGCATGTAATAAATATATGATA [TGCATGCA_site384]”, the “gcPBM binding intensity (ln)” value falls from 9.42 to 9.11.

Going from “ATACAACGATATATATATATACAAATACATATTTAT [CACACA_negctrl_site268]” to “GATTTTTTTTTGTGGACACACAGAAATAAATTTATA [CACACA_site327]”, the “gcPBM binding intensity (ln)” value falls from 9.42 to 9.09.

First: CACATACAGATATATACACACAAATATATATACTCA [CACACA_site4591]
Second: AGGATACACAGACACACACACATATATATATATATA [CACACA_site907]
The “gcPBM binding intensity (ln)” value of the first is lower: 9.76 for the first, 9.82 for the second.

Going from “TAAATAGATGTTTTATGTACGTATAAATAAAAAAAA [XGTACX_site3412]” to “TTTTTTTAAAGACATGCATGTAATATTTAAATCATT [TGCATGCA_site495]”, the “gcPBM binding intensity (ln)” value falls from 9.15 to 8.98.

First: ATTAAAAATATAGTCACACATACACCCATATATATT [CACACA_site5394]
Second: GTATATATGTATGTATGTACGTATATAGTTATGTAT [XGTACX_site6769]
The “gcPBM binding intensity (ln)” value of the first is higher: 9.58 for the first, 9.34 for the second.

Going from “ATAAAAAAATTAAATACATGCACATATACACATACA [TGCATGCA_site129]” to “TACTGAAATAATTATTTAAACGTTTTTATATGTATT [CACACA_negctrl_site487]”, the “gcPBM binding intensity (ln)” value falls from 9.59 to 9.34.

Going from “TTTATTTTTTCCAAGTCACACATGTTTTGATATATT [CACACA_site4946]” to “ACAACTCGGAAGGTTTGTACTTAAAGTATAATTAAG [XGTACX_site737]”, the “gcPBM binding intensity (ln)” value falls from 9.31 to 8.99.

First: TTTGTAAAACTATATTGTACTTTTATATATCTACAA [XGTACX_site5507]
Second: AATTGGAAGAAAAAAAAGGAAGGAAAGTTATTACAT [GTGCAC_negctrl_site74]
The “gcPBM binding intensity (ln)” value of the first is lower: 9.15 for the first, 9.38 for the second.

First: TATATACATGCATATACACACATATATTTATTTATA [CACACA_site6327]
Second: TCATACATGGTGTGTTTGCACTTGACCTATATTCAT
The “gcPBM binding intensity (ln)” value of the first is higher: 9.55 for the first, 9.26 for the second.

Going from “TCTTGAATAACAAAAAAATGTGCCAACAAAATAAAT [XGTACX_negctrl_site172]” to “TATTTTAACATTAGGTGTACATACAAAAATAAAAAT [XGTACX_site8577]”, the “gcPBM binding intensity (ln)” value falls from 9.5 to 9.3.

Going from “AATATTTGTTAAAGAGGTACACCATTTGGTAGGGAA [XGTACX_site2165]” to “ATAATATGAAAACACACACACACACTAGAAAAAAAA [CACACA_site5153]”, the “gcPBM binding intensity (ln)” value rises from 9.19 to 10.3.

Compared with “AAAAAAAAAAATATAACACACAACAAAAAAATATAT [CACACA_site1753]”, “ATTATTTAAATGGATGCACACATGCATTAAATAAAA [CACACA_site5831]” is lower in “gcPBM binding intensity (ln)” value: 9.89 for the first, 9.11 for the second.

Compared with “TTTTTCTTTTTACATACACACAAAAAAATAAAATAT [CACACA_site581]”, “TTTTTCAAATTTAATACACACACAAGTATATATTTA [CACACA_site9307]” is higher in “gcPBM binding intensity (ln)” value: 9.23 for the first, 9.49 for the second.

Going from “AAATTAATATTATGTGCATGCACAAAGAGGAACGAC [TGCATGCA_site754]” to “TGGTAATTTCTTTGATAAAAATTAATATGTATAAAT [XGTACX_negctrl_site152]”, the “gcPBM binding intensity (ln)” value falls from 9.95 to 8.79.

Going from “ACTTACACAGTTGATGGTACACTTTTATGATTTTGT [XGTACX_site3205]” to “TTTTTTAACCTTTTATGTACACAATATTTAACATTT [XGTACX_site1170]”, the “gcPBM binding intensity (ln)” value falls from 9.56 to 9.39.

Compared with “TATATATAAAGGTGTACACATATATATATATCTGTA [CACACA_site5311]”, “ATTTCATATTATGTAACACACAACAAGATAATCAAA [CACACA_site1960]” is higher in “gcPBM binding intensity (ln)” value: 9.28 for the first, 9.47 for the second.

First: ACAAGTTAAAATATTACACACATATAAATATATATA [CACACA_site3132]
Second: ATAAGGTTACAACAAACACACAAAGGAATATACTCA [CACACA_site6108]
The “gcPBM binding intensity (ln)” value of the first is lower: 9.41 for the first, 9.68 for the second.

Compared with “TTTTATTTACACAGTGGTACTATTAAAAATTAATGA [XGTACX_site6737]”, “AAAAAACAAAAAATTACACACATATATAAATATATT [CACACA_site2317]” is higher in “gcPBM binding intensity (ln)” value: 9 for the first, 9.54 for the second.

First: TAATAAAGGTGTAATACACACTATAAAAAGGAATAT [CACACA_site4756]
Second: ATGTGTATATATTATTGTACATATATATATATATAT [XGTACX_site4627]
The “gcPBM binding intensity (ln)” value of the first is higher: 9.61 for the first, 9.31 for the second.

First: AAAAAAAAAAAAAAAAGTACTAATTGAATATTAAAC [XGTACX_site3383]
Second: ACATATATATAAATATATATATATATATATATATAT [CACACA_negctrl_site874]
The “gcPBM binding intensity (ln)” value of the first is higher: 9.24 for the first, 9 for the second.

First: ATGGTAAGTATTTTATGTACATATATATTTATATAA [XGTACX_site4003]
Second: TACACCCATAGACACACACACACGCATAAAAAAAAA [CACACA_site8428]
The “gcPBM binding intensity (ln)” value of the first is lower: 9.24 for the first, 9.93 for the second.

First: TCTATTAATTAATATACACACATTAGATATAAATAT [CACACA_site7241]
Second: TAATTAAATAAAAAAACACACACATATATACATATA [CACACA_site9141]
The “gcPBM binding intensity (ln)” value of the first is lower: 9.38 for the first, 9.95 for the second.

Compared with “ACACATATATAAATATGTACATATATATATATACAT [XGTACX_site1595]”, “TATCATGTCTGTATTTCACACACGGATAATCATTTA [CACACA_site920]” is higher in “gcPBM binding intensity (ln)” value: 9.33 for the first, 9.48 for the second.

Compared with “ATGTATATAATAAGAACACACATATATTTAATTTAA [CACACA_site2941]”, “TATTCTATATTTCTATTTAGAAAACATCCCAGTGTG [GTGCAC_negctrl_site184]” is lower in “gcPBM binding intensity (ln)” value: 9.47 for the first, 8.87 for the second.

Going from “TGTTATATTTAATATAGTACATATTATTTTATATAT [XGTACX_site70]” to “AAAAATAAAATATATACATGCATATACATATTATAT [TGCATGCA_site668]”, the “gcPBM binding intensity (ln)” value rises from 9.12 to 9.29.

First: AGAAAATTAAAAAGAACACACAAATATATATAGAAT [CACACA_site3592]
Second: ATTTATATGCACCATTGTACGTTTTATAAAGTTTGG [XGTACX_site3755]
The “gcPBM binding intensity (ln)” value of the first is higher: 10 for the first, 9.35 for the second.

Going from “ATACATATATACATACGTACTTATATACATATGTGC [XGTACX_site5268]” to “TTATTATGCTGAGTACGTACTTATATAAGAATAGCA [XGTACX_site2955]”, the “gcPBM binding intensity (ln)” value falls from 9.2 to 9.08.

First: AAATTATTTCCGTGTACACATAAATATATATTTTAT [CACACA_site5121]
Second: CAATTACAAAAGAAATGTACTCGTAATAAATAAATA [XGTACX_site1126]
The “gcPBM binding intensity (ln)” value of the first is higher: 9.45 for the first, 9.29 for the second.
